The source gives no read counts; variants with many changes may rest on few reads.
B1: LINE1-full (parent)
chain: UACGUAGGUGGUUUUCCCCUGAUAGUGCUAAGGGGGCCUGGAAGUUUGGACUGGGCAGAGCUCAACACAGCGUGGCAAAGUGGCUGUGGCUAGACUGCCUCUCUGGAUUCCUCGUCACUCAGCAGGGCAUCUCUGAGAGAAAUGCC

Variants of: B1
Test: self-cleavage, relative activity (ratio to wild type); higher = more cleavage; in vitro, sequencing; the parent is a self-cleaving ribozyme

Variant	self-cleavage
U15C U23A A31U U62C A65U A78G	0.13
U15C U23A A42U U115C	0.84
U15C U23A A136G	1.56
U15C U23A G41A A92G	0
U15C U23A U29C C38U G60U	0.15
U15C U23A U73A	1.21
U15C U23A U73G U81A A140G	2.37
U15C U23C A140G	1.33
U15C U23C G36A A94G	0.25
U15C U23C G60A U73C	0.18
U15C U23C U109C A140G	0.74
U15C U26A A92G U96C	0.66
U15C U26A A124G	0.61
U15C U26A U143G	1.88
U15C U26C C66U	0.09
U15C U26C C95A	0.15
U15C U26C U62C G135A	0
U15C U26C U73A U96A U132C A140G U143A	0.07
U15C U26C U81C A140U	0.8
U15C U26G U134G	1.05
U15C U29A A42G U62C A92U U109A A140G	0
U15C U29C A92G U100A U112C	0
U15C U29C A138G	1.81
U15C U29C U91C A129C	0

Variant	self-cleavage
U15C U39A C51U G53A	1.45
U15C U39C U46C U87A	0
U15C U39C U52A A67G	0.99
U15C U39C U73A	1.02
U15C U39C U85A	0.02
U15C U39G A57U A78G A79G	0
U15C U45C A57U U85A	0.04
U15C U45C A121U A136G G144C	1.47
U15C U45C C68U U96C U100C	0
U15C U45C U85C U115A	0.16
U15C U45C U100A U112C	1.24
U15C U46A A59C	1.31
U15C U46A A78U	2.17
U15C U46A G54A U73G	0.28
U15C U46A U85C U119A A121U A138G	0.1
U15C U46C A57G U87A U100C	0.37
U15C U46C A69G	0.26
U15C U46C A69G G82A A138G	0.52
U15C U46C G58A A59G U85C	0.22
U15C U46C G97A A136U	0.74
U15C U46C U47A A65U A121G	0.34
U15C U47A A67G U132C	0.77
U15C U47A A136U	1.61
U15C U47C A124G	1.68

Variant	self-cleavage
U15C U47C G72A A140G	1.15
U15C U47G U112C	1.15
U15C U52A U143C	1.21
U15C U52C A57U U102C	0
U15C U52C A64U A67G U102A U130C A136U A138G	1.31
U15C U62A U109C	0.04
U15C U62A U119C	0.14
U15C U62C A141G	0.24
U15C U62C A142G	0.13
U15C U62C C113U	0.01
U15C U73A A78G	0.48
U15C U73C A78G A142U	1.75
U15C U73C A94G	0.61
U15C U73C U100C U132C	1.62
U15C U81C A129U	1.18
U15C U85A A92U U102C A121G C131U	0.05
U15C U87A A140G A142G	0.19
U15C U87A U96C A129G	0.64
U15C U87A U102A	0.06
U15C U87C A107G A129U U134A	0
U15C U87C A140G	0.1
U15C U91C G135A	0.35
U15C U91G A140C	0.21
U15C U96A U108C	0.09

Variant	self-cleavage
U15C U96A U130A	0.07
U15C U96C C128U	0.13
U15C U96G U100C	0.19
U15C U102A U108C	1.53
U15C U102C A142G	1.6
U15C U104A C113U	0.57
U15C U104C A117U A142G	2.24
U15C U104C G105A	2.21
U15C U104C G126A	1.49
U15C U108C U115C G139U	1.91
U15C U109C C123U	1.26
U15C U109C U119A	0.32
U15C U112A U143C	1.68
U15C U115C A121C	2.04
U15C U115C G144U	1.1
U15C U130A C145G	2.17
U15C U130A U143C	1.23
U15C U132A A141G	1.6
U15C U134A U143C	1.31
U15G A31G U39C U46C A77G	0
U15G A43G A65G A78G U96A U132C	0
U15G A43G U104C A138U U143C	0
U15G A67U U112A U132C	0.27
U15G A69G G137A	0

Variant	self-cleavage
U15G U29C A65G U85A G122U U130A	0.12
U15G U29C A117G	0
U15G U46C A59G G74A	0.27
U15G U73C C113U A140G	0.28
C16A A42G U81C U132C A142G	0
C16A A43G U112C	0.84
C16A A57G A78G	0.64
C16A A57U A67G A78G	0.5
C16A A92U U130C A141G	0.35
C16A C19U U109C	0.33
C16A U39C A77U U115C	0.92
C16A U52A G53U	1.04
C16U A22G C90U A140U	0.06
C16U A42G U87A	0.12
C16U A43G A142G	1.51
C16U A50G U112C	1.02
C16U A65G G72A A141G	0.02
C16U A67G A78G U102A	0.12
C16U A77G A129U	1.58
C16U A78U U100C A140C	2.19
C16U C18U G21A A50G G72A U102C	1.03
C16U C38A U45C A136G U143A	0.69
C16U G21U U52C	1.29
C16U G25A A77U	0.67

Variant	self-cleavage
C16U U20C A142G	0.87
C16U U29A U132C U134C	0.34
C16U U39C C51U U130A	0.53
C16U U104C U134C	2.59
C16U U112C U115A	1.89
C17A A30U A129G A138U	0.24
C17A A42G U45A	1.04
C17A A50G U102C	0.77
C17A A65G C110U	0.03
C17A A67C U104C A140U	0.22
C17A A67G A77G	0.5
C17A A69U A78G U96C	0
C17A G32A G72A U143C	0.91
C17A U47A U62C U91C U115C	0.6
C17A U112C A141G	0.72
C17G A22G A94G	0.42
C17G G36C A94G	0.32
C17U A24G U39C A79G A138G	0
C17U A42G U46A	1.19
C17U A42U G97A	0.07
C17U A57G G88A A124U	0.05
C17U A59G U104A A121G U130A	0
C17U A64G U119A A136G	0.29
C17U A77U U87A U104A A140U	0.07

Variant	self-cleavage
C17U A79G A92G	0
C17U A121C A140G	1.14
C17U A124G U132C	1.11
C17U C28U U62A A67G G72A	0.14
C17U G32A G35C U62C U100C U112A U134A	0
C17U G60A C113A A142G	0.04
C17U U26A U39C A78U	0.1
C17U U45C A59G U100A A138G	0.17
C17U U45C U143A	1.23
C17U U47A A129G U132C	1.51
C17U U47A U108C	0.76
C17U U87C A124G	0
C18A A59G U87C	0.17
C18A A79G C110A	0.19
C18A G72A U100C	1.9
C18A U20C U134A	0.82
C18A U26A A67G	0.63
C18A U52A U102C U130C	1.16
C18A U81A A129G A138G	2.41
C18A U85A C128U A142G	0.05
C18A U102C A142G	1.53
C18U A22G U47C	1.31
C18U A30G A59G	0.28

Reference: the RNAGym collection of RNA variant scans (doi:10.7554/elife.90254)
